Results from PubChem BioAssay AID1745853 (National Center for Advancing Translational Sciences (NCATS), 2022).
The other results are listed elsewhere or left out. Shown are side measurements of this screen, not its main read-out; they come without a call.

Legend:
Test in all cases: Primary Screen for Target Class Profiling of Small Molecule Inhibitors of Methyltransferases
[1] = molecular target: Glycine N-methyltransferase (Homo sapiens) (UniProt Q14749); settings: purified enzyme, MTase-Glo SAH luminescence; measured here: GNMT inhibition; at 40 µM; stronger effect = lower value
Procedure, shortened: (§1)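 Each enzyme was reacted with SAM and its substrate, with compounds tested once at 40 uM; SAH formed was read by MTase-Glo luminescence.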

[2] = molecular target: Guanidinoacetate N-methyltransferase (Homo sapiens) (UniProt Q14353); settings: purified enzyme, MTase-Glo SAH luminescence; measured here: GAMT inhibition; at 40 µM; stronger effect = lower value
Procedure, shortened: as §1

[3] = molecular target: Histamine N-methyltransferase (Homo sapiens) (UniProt P50135); settings: purified enzyme, MTase-Glo SAH luminescence; measured here: HNMT inhibition; at 40 µM; stronger effect = lower value
Procedure, shortened: as §1

[4] = molecular target: Nicotinamide N-methyltransferase (Homo sapiens) (UniProt P40261); settings: purified enzyme, MTase-Glo SAH luminescence; measured here: NNMT inhibition; at 40 µM; stronger effect = lower value
Procedure, shortened: as §1

[5] = molecular target: Phenylethanolamine N-methyltransferase (Homo sapiens) (UniProt P11086); settings: purified enzyme, MTase-Glo SAH luminescence; measured here: PNMT inhibition; at 40 µM; stronger effect = lower value
Procedure, shortened: as §1
% is scaled to controls: 0 for no effect and ±100 for the full control effect.

| Structure (SMILES) | activity change, negative = inhibition [1] | activity change, negative = inhibition [2] | activity change, negative = inhibition [3] | activity change, negative = inhibition [4] | activity change, negative = inhibition [5] |
| --- | --- | --- | --- | --- | --- |
| NC(=Nc1ccc(CCNCc2cccc(Cl)c2)cc1)c1cccs1 | 1.38% | 10.7% | -60.3% | -10.5% | -10.9% |
| Cc1noc(-c2ccccc2OC2CCNC2)n1 (stereo not given) | -5.97% | -5.08% | -5.93% | -6.97% | -5.29% |
| CC1(C)Cc2c(-c3ccccc3)c(-c3ccc(Cl)cc3)c(CC(=O)O)n2C1 | -10.9% | -26.1% | -1.74% | -45.7% | -6.27% |
| CCOC(=O)CNC(=O)C1(C)Cn2c(ccc2-c2ccco2)C(=O)N1Cc1ccccc1Cl (stereo not given) | -0.855% | 2.27% | 1.2% | 1.99% | -0.519% |
| CCCN1C(=O)c2c(C(=O)Nc3ccccc3Cl)ncn2CC1(C)C(=O)NCc1ccc(OC)cc1 (stereo not given) | -1.52% | 0.783% | 2.11% | 0.965% | 4.28% |
| CC(C)NC(=O)c1ccc2c(=O)n(Cc3ccccc3)c3nnc(SCc4ccc(F)cc4)n3c2c1 | 5.01% | 1.33% | 10.5% | 1.97% | 7.24% |
| CN1CCOC[C@H]2CCN(C(=O)c3cccs3)C[C@H]21 | 4.28% | -7.41% | -3.72% | -8.02% | 4.59% |
| CCCn1c(=O)c2ccc(C(=O)NC(C)CC)cc2n2c(SCC(=O)Nc3ccc(C)cc3)nnc12 (stereo not given) | 0.677% | 0% | 5.37% | 1.79% | 2.9% |
| Cc1ccc(OCc2nc(C3CCN(S(=O)(=O)Cc4ccccc4F)C3)no2)cc1 (stereo not given) | -3.65% | -2.42% | 0.925% | -3.33% | -2.97% |
| O=C(CCc1ccncc1)NNC(=O)N1Cc2ccccc2Oc2ccc(Cl)cc21 | -1.56% | 11.3% | 3.2% | -3.96% | 9.64% |
| CC1CN(c2cc3c(cc2F)c(=O)c(C(=O)O)cn3-c2ccc(F)cc2F)CCN1 (stereo not given) | -2.05% | 2.58% | -5.63% | -14.7% | -6.87% |
| CCCn1cc(C(=O)N2C[C@@H](N(C)C)[C@H](c3ccc(C)cc3)C2)c(C)n1 | -3.85% | -2.96% | -2.34% | -8.56% | -2.87% |
| c1cnc(N2CCOCC2)c(OC2CCNC2)n1 (stereo not given) | -6.26% | -5.07% | -6.39% | -5.25% | -3.51% |
| FC(F)(F)c1ccc(Nc2nc3ccc(Oc4ccnc(-c5ncc(C(F)(F)F)[nH]5)c4)cc3[nH]2)cc1 | -7.1% | -16% | 0.514% | -41.5% | -2.35% |
| C/C=C(\C)C(=O)OC[C@H]1O[C@@H](O[C@H]2[C@@H](O[C@H]3O[C@H](COC(=O)/C(C)=C/C)[C@@H](O)[C@H](O)[C@H]3O[C@@H]3O[C@H](COC(=O)/C(C)=C/C)[C@@H](O)[C@H](OC(=O)/C(C)=C/C)[C@H]3O)O[C@H](COC(=O)/C(C)=C/C)[C@@H](O)[C@@H]2O)[C@H](O)[C@@H](O)[C@@H]1O | 0% | 8.72% | 0.179% | -3.48% | 4.27% |
| C=CCN(C)C(=O)[C@@H](C)C1CC[C@@]2(C)Cc3sc(CSc4ccccc4)nc3[C@@H](C)[C@@H]2[C@H]1O (stereo not given in full) | -5.06% | -6.45% | -1.99% | -13.8% | -24.7% |
| CCCn1c(=O)c2ccc(C(=O)NC(C)CC)cc2n2c(=O)n(Cc3cccc(Cl)c3)nc12 (stereo not given) | -1.02% | 3.06% | 2.87% | -6.35% | -0.905% |
| CC(C)Cc1cc(C(=O)N2CCc3[nH]nc(-c4ccccc4)c3C2)nc(=O)[nH]1 | -6.2% | -1.76% | 1.42% | -1.16% | -1.92% |
| CC1CC[C@]2(C(=O)O)CC[C@]3(C(=O)O)C(=CCC4[C@@]5(C)CC[C@H](O[C@@H]6O[C@H](CO)[C@@H](O)[C@H](O)[C@H]6O)C(C)(C)C5CC[C@]43C)C2C1C (stereo not given in full) | 5.94% | 7.3% | 11.5% | -6.01% | 3.85% |
| CC1(C(=O)NCc2ccccc2)Cn2nc(-c3ccccc3)cc2C(=O)N1CCCc1ccccc1 (stereo not given) | 7.21% | 2.4% | 9.15% | 10.1% | 2.78% |
| CCC1c2ccc(C)n2CCN1C(=O)Nc1ccc(Br)cc1F (stereo not given) | 0.017% | 0.176% | 4.87% | -12.6% | -2.1% |
| Cc1ccccc1CN1CC(=O)N(Cc2ccc(Cl)cc2)c2ccccc2S1(=O)=O | 4.88% | 6.69% | 0.454% | -0.312% | -1.01% |
| CCOc1ccccc1CN1C(=O)c2cc3sccc3n2CC1(C)C(=O)NC1CCCCC1C (stereo not given) | 0.5% | 0% | 2.13% | -2.95% | -1.46% |
| C[C@@H]1N[C@H]2N(C1=O)c1ccccc1[C@@]2(O)C[C@@H]1C(=O)N[C@@H](C)c2nc3ccccc3c(=O)n21 | -4.99% | -0.094% | 5.37% | -20.2% | -7.53% |
| CCOC(=O)Nc1nc2ccccc2[nH]1 | -7.76% | -3.88% | -1.88% | -29.1% | -0.36% |
| CC(C)NC(=O)c1ccc2c(=O)nc3c(-c4ccccc4)n[nH]n3c2c1 | 2.28% | 0% | 3.22% | 4.42% | -0.592% |
| COc1ccc(CNC(=O)c2ccc3c(=O)nc4c(-c5cccc(F)c5)n[nH]n4c3c2)cc1OC | -13% | -2.46% | -4.66% | -9.72% | -4.37% |
| C=Cc1ccc(Cn2nc3n(CCC(C)C)c(=O)c4ccc(C(=O)NC5CCCC5)cc4n3c2=O)cc1 | 4.57% | 1.12% | 6.26% | -6.42% | 4.34% |
